In all, about 13,000 compounds were measured (“IFI”: median about 4, highest 2% from about 17 on). This is one part of the list.
Assay: GSK_TCMDC: Inhibition Frequency Index (IFI). The number of non-kinase HTS assays where a compound showed > 50 % inhibition, expressed as a percentage of the number of such assays in which the compound was tested (-0 is zero)
Type: functional

SMILES	IFI [%]
CC1CN(c2cnn(Cc3ccc(NC(=O)Nc4ccc(F)cc4[N+](=O)[O-])cc3)c(=O)c2Cl)CC(C)N1 (configuration not stated)	-0
O=C(Nc1cccc(C(F)(F)F)c1)c1cc([N+](=O)[O-])cc2cn[nH]c12	5.62
CCOC(=O)CCCc1cc(NC2CCN(C)CC2)nc(Nc2ccc(OC)cc2)n1	2.9
COc1cc(NC(=O)c2sc(-c3ccc(Cl)cc3)cc2NC(=O)c2cccc(N(C)C)c2)ccc1OCCN1CCCC1	6.52
O=S(=O)(NCCN1CCCC1)c1cccc(-c2ccccc2CNC2Cc3ccccc3C2)c1	8.04
Cc1ccc(C(C#N)c2ccc3c(C(F)(F)F)cc(C(F)(F)F)nc3n2)cc1 (configuration not stated)	2.78
O=C(/C=C/c1ccc(Cl)c(Cl)c1)NCC[C@@H]1C[C@H]1CCN1CCC(c2c[nH]c3ccccc23)CC1	12.3
CCC(CC)CN1C(=O)C(C)(c2ccccc2)N=C1N (configuration not stated)	1.9
CCCNC(=O)c1cncc(-c2ccc(CNC3Cc4ccccc4C3)cc2)c1	3.08
C=C(NC(=O)c1cc(C)cc(C)c1)C(=O)OC	4.85
Cc1cc(NCCC(=O)NCCOc2ccccc2)nc(Nc2ccccc2)n1	2.33
O=C1COC2(CN1CC1CCN(Cc3ccc(O)c(Cl)c3)C1)c1ccccc1-c1ccccc12 (configuration not stated)	4.03
COc1cc2nc(N3CCC(CNC(=O)c4cccc5cccnc45)CC3)nc(N)c2cc1OC	5.22
CC(O)C1CCCCN1C(=O)c1cccc(-c2cccc(-c3nc4ccccc4[nH]3)c2)c1 (configuration not stated)	1.94
CCOCCCNc1ncc(-c2ccsc2)c(-c2nc(C)cs2)n1	8.89
COc1cc(CCCOc2c(N)nc(N)nc2N)cc(OC)c1OC	0.72
COc1cc(NC(=O)c2ccc3c(=O)n(Cc4ccccc4)c(=S)[nH]c3c2)cc(OC)c1OC	1.38
CC1(C)N=C(N)N=C(N)N1c1cccc(C(F)(F)F)c1	0.85
Cc1[nH]c2ccc(O)cc2c1C1CCN(CCCCCNC(=O)/C=C/c2ccc(Cl)c(Cl)c2)CC1	4.96
COc1c(C=NNc2nc(=Nc3ccccc3)[nH]c(=Nc3ccccc3)[nH]2)ccc(Br)c1O	4.26
O=C(CC1NC(=O)c2ccccc21)Nc1ccc(-c2ccc(-c3nc4cc(C(F)(F)F)ccc4[nH]3)cc2)cc1 (configuration not stated)	1.8
COC(=O)c1cccc(NC(=O)NC2CCN(c3ccnc(Nc4ccc(OC)cc4)n3)C2)c1 (configuration not stated)	1.54
Nc1cc(-c2ccc(-c3cccs3)s2)nc2ccccc12	7.86

SMILES	IFI [%]
N#Cc1ccc2c(c1)CN(C1CCC(NC(=O)C3=Cc4cc(Cl)ccc4OC3)CC1)CCC2 (configuration not stated)	3.39
Cc1noc(C)c1-c1ccc2c(Nc3ccc(C#N)cc3)c(C(N)=O)cnc2c1	4.03
Cc1ccc2sc(N3CCN(C(=O)c4ccc([N+](=O)[O-])o4)CC3)nc2c1C	-0
CCOC(=O)c1ccc(NC(=O)Nc2cccc(-c3cccc(-c4nc5ccccc5[nH]4)c3)c2)cc1	9
O=c1ccc2ccc(O)c(O)c2o1	6.43
N#Cc1ccc(CN2CCC(Oc3ccc(NC(=O)c4cccs4)cc3)CC2)cc1	7.58
CC(C)(C)c1ccc(CN2CCC(NC(=O)c3ccc(-c4ccccc4Cl)s3)CC2)cc1	8.77
CCN(CCCN1CCCCC1)c1cc(C)nc(Nc2ccc(C)cc2C)n1	5.06
COCc1ccc(CN2CCC(C(=O)Nc3ccc(-c4nc5ccccc5[nH]4)cc3)CC2)o1	2.63
O=C(CC1SC(N2N=C(c3cccs3)CC2c2ccccc2)=NC1=O)Nc1ccccc1F (configuration not stated)	2.27
Cc1ccc(-n2c(=O)c3cccnc3n2CC(=O)Nc2cccc(C)c2C)cc1	1.39
COc1cc(C=CC(=O)N2CCN(Cc3cccc(C)c3)CC2)ccc1OCc1c(C)noc1C	0
Cc1ccc(-c2nnc(Nc3ccc(C(=O)N4CCCCC4)cc3)c3ccccc23)cc1S(=O)(=O)NCC1CCCO1 (configuration not stated)	2.63
O=C(Nc1cccc(-c2nc3ccccc3[nH]2)c1)c1ccc(-c2cccc([N+](=O)[O-])c2)o1	0
CCNc1cc(C(=O)N[C@@H](Cc2ccccc2)[C@H](O)CNCc2cc(C#N)ccc2OC)cc(N2CCCC2=O)c1	-0
O=C(Nc1ccccc1)N1CCC(CN2CCOC(c3ccccc3)(c3ccccc3)C2)CC1	2.31
COc1ccc(CNCc2ccccc2)cc1-c1ccc(S(=O)(=O)NCCN2CCCC2)cc1	4.9
Cc1cc(NC2CCCC2)nc(Nc2ccc(F)cc2)n1	9.09
O=C(NCCN1CCCC1)c1cccc(-c2ccc(-c3nc4cc(F)ccc4[nH]3)cc2)c1	6.31
Cc1nc(N)nc(N)c1-c1ccc(Cl)cc1	1.45
CN1CCN(CCCN(Cc2cccc(-c3cccc(CNC4CCCC4)c3)c2)C(=O)/C=C/c2ccccc2)CC1	6.62
COC(=O)c1cc2cccc(NC[C@@H](C)NC[C@H](O)c3cccc(Cl)c3)c2[nH]1	4.44
CC(C)C(C(=O)n1cc2c(ccc3nc(N)nc(N)c32)n1)C(C)C	4.48

SMILES	IFI [%]
COc1ccc2nccc(N(C)CC3(O)CCC(NCc4ccc5c(n4)NC(=O)CS5)CC3)c2n1 (configuration not stated)	-0
CC[C@H](NC(=O)c1c(N)c(-c2sccc2Cl)nc2ccccc12)c1ccccc1	2.38
COC(=O)c1cc(C(O)CNC(C)CCCc2ccccc2)ccc1O (configuration not stated)	2.17
O=C(Nc1cccc(-c2ccc(CN3CCC(O)CC3)cc2)c1)c1cccc(Cl)c1	2.94
COc1ccc(CN2CCN(C(=O)c3cccs3)CC2)c(O)c1	0
COc1ccc(S(=O)(=O)N2CCOCC2)cc1NC(=O)c1cc2ccccc2o1	0.95
O=C(/C=C/c1ccc(Cl)c(Cl)c1)NCCCCCN1CCC(NC(=O)Nc2cccc(Cl)c2)CC1	7.28
Cc1cc(-c2ccc3c(c2)CCN(CCC2CCC(NC(=O)/C=C/c4cccc(Cl)c4)CC2)CC3)on1 (configuration not stated)	5.88
O=C(/C=C/c1ccc(Cl)c(Cl)c1)NC1CCC(CN2CCC(Cc3c[nH]c4ccccc34)CC2)CC1 (configuration not stated)	3.62
O=C(c1ccc(O)c(-c2cc(Cl)cc(Cl)c2)c1)N1CCCC1	3.73
N#Cc1ccc(N[C@@H](CC2CCCCC2)C(=O)Nc2ccc(-c3ccccc3)cc2)c2ccccc12	1.94
CCN(CC)CCN(Cc1ccc(-c2ccc(C(F)(F)F)cc2)cc1)C(=O)Cn1c(CCc2cccc(C#N)c2)nc(=O)c2ccccc21	6.62
CCOC(=O)C1=C(C)N=c2sc(=Cc3ccccc3O)c(=O)n2C1c1ccc(OC)c2ccccc12 (configuration not stated)	2.14
CC(CCCCCC(=O)Nc1ccc(CC(C)NCCc2cccc(Cl)c2)cc1)NCCc1cccc(Cl)c1 (configuration not stated)	11.9
Cc1ccc(OCCCCONC(=O)c2ccccc2)cc1	0.7
CC(=O)Nc1cccc(CNc2cc(C)nc(Nc3ccc(C)cc3)n2)c1	5
COCCNCc1cccc(-c2ccc3nccc(Nc4cc(O)ccc4C)c3c2)c1	2.21
O=C(/C=C/c1ccc(Cl)c(Cl)c1)NCCCCCN1CCCC(CCCNC(=O)Nc2ccc(C(F)(F)F)cc2)C1 (configuration not stated)	11.3
CCCCCCN1CCCN(Cc2cccc(C(=O)Nc3ccc(C(C)(C)C)cc3)c2)CC1	12.3
Cc1ccc(CNC(=O)[C@H](CCCN)Nc2nc(NCC3CCCCC3)ncc2C)cc1	8.89
CN(C)CCN(C)Cc1ccc(-c2ccc(NC(=O)c3cccc(C#N)c3)cc2)cc1	6.19
O=C(/C=C/c1ccc(Cl)cc1)NCCCCCN1CCCN(C(=O)Nc2cccc(Cl)c2)CC1	11
FC(F)(F)c1ccc2[nH]c(-c3ccc(-c4ccc(CNCC5CCCO5)cc4)s3)nc2c1 (configuration not stated)	6.86

SMILES	IFI [%]
OC(CNCc1ccccc1OCc1ccccc1)c1cccc(Br)c1 (configuration not stated)	0.82
Cc1cc(OCC2CCCN(c3ncc(C(=O)NC4CC4)cc3Cl)C2)ccc1F (configuration not stated)	1.85
O=C(NCCCCN1CCC2c3cccc(O)c3CCC21)c1ccc(-c2ccccc2)cc1 (configuration not stated)	3.67
COc1ccc(-c2ccc3c(-c4cccc(S(C)(=O)=O)c4)cnc(N)c3c2)cc1	5.22
Cc1ccc([N+](=O)[O-])cc1NC(=O)N(CC(O)c1ccccc1)C1CCCCC1 (configuration not stated)	-0
COc1cc(C(=O)NC2CC(C)(C)NC(C)(C)C2)ccc1-c1cc2cc(Cl)c(Cl)cc2[nH]1	8.45
Cc1cc(N(CCO)CCCN2CCCCC2)nc(Nc2ccc(Cl)cc2)n1	1.44
CCC(C)Oc1ccc(CCCON2C(N)=NC(N)=NC2(C)C)cc1 (configuration not stated)	5.76
CCn1cc(C=C2Oc3c(ccc(O)c3CN3CCCCC3)C2=O)c2cc(OC)ccc21	2.7
COc1ccc2ncc(OC)c(CCN3CC[C@@H](NCc4ccc5c(n4)NC(=O)CS5)[C@H](O)C3)c2n1	1.53
CCCCCn1c(Sc2ccc(C#N)c([N+](=O)[O-])c2)nnc1-c1ccc(Cl)cc1	5.63
NC1CCN(Cc2ccc(-c3cccc(-c4nc5cc(F)ccc5[nH]4)c3)cc2)C1 (configuration not stated)	4.23
COc1ccc(C(=O)N2CCC(C(=O)NC(C)c3ccc(-n4ccnc4)cc3)CC2)c2ccccc12 (configuration not stated)	0
COc1cc(F)c2ncc(Cl)c(CCN3CCC(NCc4cc5c(cn4)OCCO5)CC3)c2c1	4.35
CC(C)C[C@H](NC(=O)c1cc2ccccc2s1)C(=O)N[C@H]1CCN(Cc2ccc(I)c(OC3CCN(C)C3)c2)C1 (some centres not stated)	16.7
Cc1csc2nc(C(C)c3ccc(NC(=O)c4cccs4)cc3)oc(=O)c12 (configuration not stated)	0.73
Cn1ccnc1S(=O)(=O)CCNCc1ccc(-c2ccc3ncnc(Nc4ccc(OCc5cccc(F)c5)c(Cl)c4)c3c2)o1	7.3
Cc1ccc(OCC2CCN(c3ncc(C(=O)NC4CC4)cc3Cl)CC2)cc1	0
CCOC(=O)CNC(=O)N1CCN(C(=O)NCC(=O)OCC)CC1	-0
CCc1ccc(N2C(N)=NC(N)=NC2(C)C)cc1	1.46
O=C1c2cc(I)ccc2SC1c1ccccc1 (configuration not stated)	1.43
CC1CCCN(C(=O)C(C)Nc2cc(Cl)ccc2N2CCOCC2)C1 (configuration not stated)	4.55
Cn1c(=O)c2cc(C(=O)NCCCN3CCCCCC3)sc2c2ccccc21	3.23
